# Reference: PubChem BioAssay AID1240 (Sanford-Burnham Center for Chemical Genomics, 2008)
# About 800 (1.6%) of roughly 50,000 compounds showed an effect of 50% or more. Some of the results follow.
# Biological target: Bcl-2-like protein 10 (Homo sapiens) (UniProt Q9HD36)
# Test: TR3 peptide-Bcl-B binding displacers, biochemical primary FP assay, phenotype converters (AID 1240);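 note: 0% = Bcl-B with tracer peptide and DMSO and 100% = tracer peptide lacking Bcl-B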
# Conditions: GST-Bcl-B / FITC-TR3 peptide fluorescence polarization; stronger effect = higher value; compound at 3.75 mg/L
# Sequence of UniProt Q9HD36 (Q9HD36 whole entry, looked up): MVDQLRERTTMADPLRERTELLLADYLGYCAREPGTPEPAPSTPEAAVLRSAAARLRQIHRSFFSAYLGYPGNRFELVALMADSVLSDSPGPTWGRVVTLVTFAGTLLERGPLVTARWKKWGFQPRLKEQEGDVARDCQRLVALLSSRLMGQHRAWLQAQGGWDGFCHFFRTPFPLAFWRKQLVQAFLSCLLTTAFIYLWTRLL
row,Structure (SMILES),displacement
1,O=C(Nc1cccc2ccccc12)C(=O)NC1CCCCC1,8.2%
2,O=C(N=Nc1c(O)n(CN2CCCC2)c2ccccc12)c1ccncc1,-6.2%
3,O=C1/C(=C/c2cccc(Br)c2)SC(=S)N1Cc1ccco1,3.6%
4,CC(=O)Nc1ccccc1NC(=O)COc1ccc(Cl)cc1C,-4.5%
5,CCOc1ccc(N(CC(=O)NCC2CCCO2)S(C)(=O)=O)cc1 (stereo not drawn),13.1%
6,COc1cccc(OCCNC(=O)Nc2cc(F)c(F)cc2Cl)c1,-20.1%
7,Cc1nc2cc(N=Cc3ccc(N(C)C)cc3)ccc2n1Cc1ccccc1,6.3%
8,O=C(COc1ccccc1[N+](=O)[O-])N=Nc1c(O)[nH]c2ccc(Br)cc12,7.6%
9,COc1ccc(CCN=Cc2c(O)[nH]c(=O)[nH]c2=O)cc1,-2.3%
10,CC1CN(C)C(C)CC1OC(=O)c1ccccc1Cl (stereo not drawn),7%
11,O=C(N=c1scc(-c2ccccc2)n1-c1ccccc1)c1ccco1,-6.2%
12,COc1cccc(-c2csc(/C(C#N)=C/c3sccc3C)n2)c1,-8.9%
13,O=C1NC(=O)N(c2ccc(Br)cc2)C(=O)/C1=C/c1ccc(-c2cccc([N+](=O)[O-])c2)o1,138%
14,COC(=O)c1c(NC(=O)Cc2ccccc2)sc(C)c1C,-14.8%
15,N#Cc1c(NC(=O)c2ccc(S(=O)(=O)c3ccccc3)cc2)sc2c1CCCC2,83.9%
16,O=C(CCCN1C(=O)/C(=C\c2cccs2)SC1=S)Nc1cccnc1,-0.9%
17,COc1ccc(-c2cc(-c3cc(Cl)ccc3O)[nH]n2)cc1OC,9.9%
18,O=C1NC(=Nc2cccc(Cl)c2Cl)S/C1=C\c1cccc([N+](=O)[O-])c1,-3.6%
19,COc1ccc(OC)c(N2C(=O)c3ccc(OC)c(OC)c3C2=O)c1,-13.4%
20,CC(C)(C)c1ccc(-c2cc(-c3cc(Cl)ccc3O)[nH]n2)cc1,0.6%
21,N=c1sc(Cc2ccccc2Cl)cn1CC(=O)c1ccccc1,9.5%
22,O=C(CCN1C(=O)c2ccccc2C1=O)Nc1ccc(I)cc1,2.3%

row,Structure (SMILES),displacement
1,COc1ccc(NC(=O)C(=O)NC2CC2)cc1,6.6%
2,O=C1C2=C(NC(=S)NC2c2ccc([N+](=O)[O-])cc2)c2ccccc21 (stereo not drawn),-6.2%
3,COc1ccc(/C=N/Nc2nc(N3CCCC3)nc(N3CCCC3)n2)c(OC)c1,-0.4%
4,COc1ccccc1/C=C1/C(C)=C(C#N)c2nc(N)c(C#N)c(C)c21,-0.7%
5,COc1cc(N2C(=O)NC(=O)/C(=C\c3cc(I)c(O)c(OC)c3)C2=O)c(OC)cc1Cl,1.6%
6,COc1cc(/C=C2/N=C(c3ccccc3)OC2=O)cc(Cl)c1OC(C)=O,1.8%
7,C=COCCNC(=O)C(=O)Nc1ccccc1OCC,0.5%
8,Cc1ccc(CCCCCCCCCCCC(=O)N2CCOCC2)cc1,-3.7%
9,CN(C)C=NC(=O)/C(C#N)=C1\CCc2ccccc2N1,19.9%
10,Cc1cccc(C(C)C)c1NC(=O)c1cc2ccccc2oc1=O,12.3%
11,CC(=O)N(c1ccccc1)C1CC(C)N(C(=O)c2cccs2)c2ccccc21 (stereo not drawn),-5.4%
12,CN(C)CCCNC(=O)c1ccccc1Cl,11.1%
13,CCCCOc1ccc(S(=O)(=O)n2cnc3ccccc32)cc1,16.1%
14,CCCCOc1ccc(C(=O)Nc2cccc(OC)c2)cc1,2.4%
15,COc1ccc(/C=N/NC(=O)c2cc(-c3ccc4ccccc4c3)n[nH]2)cc1O,-10.8%
16,CC(C)COc1ccc(C(=O)Nc2ccc(-c3nc4ccccc4o3)cc2)cc1,10%
17,COc1ccc(NC(=O)COC(=O)C(CCSC)NC(=O)c2ccccc2)cc1 (stereo not drawn),3.9%
18,CCCCOc1ccc(Cc2c(O)nc(SC)[nH]c2=O)cc1,9.1%
19,O=C(O)c1ccc(NC2=C(N3CCCCC3)C(=O)c3ccccc3C2=O)cc1,5.7%
20,COc1cc(/C=C2\SC(=S)N(C)C2=O)ccc1OC(=O)c1sc2cc(C)ccc2c1Cl,5.7%
21,CCOC(=O)/C(=C\c1ccc(-c2ccc(S(N)(=O)=O)cc2)o1)C(C)=O,9.6%
22,O=C1CC(c2ccc(Cl)cc2)CC2=C1C(c1ccccc1F)Nc1ccccc1N2 (stereo not drawn),-8.9%

row,Structure (SMILES),displacement
1,CC(=O)Nc1ccc(-c2ccc(NC(C)=O)c(Cl)c2)cc1Cl,3.3%
2,COc1ccc([N+](=O)[O-])cc1NC1CCCC(C)C1 (stereo not drawn),8.3%
3,CCOc1ccc(/C=C2/SC(=S)NC2=O)c(OCC)c1,114%
4,Cc1ccc2ncnc(N(CC(C)C)CC(C)C)c2c1,6.5%
5,COc1ccc(C(=O)N2CCN(C3CCCC(C)C3)CC2)cc1 (stereo not drawn),-19.4%
6,C/C(CC(=O)NCCc1ccccc1)=N\NC(=O)C12CC3CC(CC(C3)C1)C2,-36.9%
7,CCOc1ccc2oc(-c3ccccc3)c(C(=O)N3CCN(C)CC3)c2c1,12.2%
8,CCCCCC/C(=N\NC(=O)c1ccncc1)c1ccccc1,-0.9%
9,CC(C)c1ccc(N2C(=O)NC(=O)/C(=C/c3ccccc3O)C2=O)cc1,0.6%
10,Cc1ccnc(SCC(=O)Nc2ccccc2)n1,1.9%
11,COC(=O)Nc1ccc(S(=O)(=O)N2C(C)CCCC2C)cc1 (stereo not drawn),-7.3%
12,O=C(N/N=C/c1c[nH]c2ccccc12)c1cc(C23CC4CC(CC(C4)C2)C3)[nH]n1,-11.9%
13,CCOc1ccc(N=C2c3ccc([N+](=O)[O-])cc3C(=O)C2C(C)=O)cc1 (stereo not drawn),0.7%
14,CC(C)C(=O)N1N=C(c2ccc(Br)cc2)CC1(O)C(F)(F)F (stereo not drawn),-4.5%
15,COc1cc(CN2CCN(C3CCCCC3)CC2)cc(OC)c1OC,5.9%
16,COC(=O)c1cc(NC(=O)c2cc(Cl)ccc2[N+](=O)[O-])cc(C(=O)OC)c1,4%
17,O=C(NC(=S)Nc1cc([N+](=O)[O-])cc(Cl)c1O)c1ccc(F)cc1,15.4%
18,N#C/C(=C/c1c(F)cccc1Cl)C(=O)Nc1ccc(Cl)cc1,2.1%
19,CC(C)=C(NC(=O)c1ccccc1)C(=O)Nc1cccc(C)c1,-11.8%
20,COc1ccc(-c2cc(=O)n3[nH]c(-c4ccccc4)cc3n2)cc1,-0.9%
21,O=C(COC(=O)c1ccc(N2C(=O)c3ccccc3C2=O)cc1)COC(=O)c1ccc(N2C(=O)c3ccccc3C2=O)cc1,8.3%
22,Cc1ccc(NC(=O)c2ccc([N+](=O)[O-])cc2NC(=O)c2ccccc2)c(C)c1,-3%

row,Structure (SMILES),displacement
1,COc1ccc(OC)c(NC(=O)COc2ccc3ccccc3c2)c1,-13.3%
2,COc1ccc(Br)cc1C(=O)Nc1cccc(-c2nc3ccccc3[nH]2)c1,6.7%
3,O=C1C(Cl)=C(Nc2ccccc2)C(=O)N1c1cccc(Cl)c1Cl,11.4%
4,COc1cccc(CN2CCN(S(=O)(=O)c3ccc(Cl)cc3)CC2)c1,-1.6%
5,O=C1OC(c2ccc(Br)cc2)=N/C1=C\c1ccc(OC(=O)c2ccccc2F)cc1,-12.9%
6,CCOC(=O)C(=C/C(C)=C/c1ccco1)C(=O)OCC,8.3%
7,O=C1CC(c2ccccc2)CC2=C1C(c1ccc(OC(F)(F)F)cc1)Nc1ccccc1N2 (stereo not drawn),8.8%
8,C=CCn1c(SCC(=O)NCCCO)nc2sc(C)c(C)c2c1=O,0%
9,O=C1OC(c2ccccc2)=C/C1=C/c1ccc(-c2ccc([N+](=O)[O-])cc2Br)o1,-18.7%
10,Nc1nnc(COc2ccc(Br)cc2)s1,6%
11,COc1ccc(NS(=O)(=O)c2cccc([N+](=O)[O-])c2)cc1Cl,-3.9%
12,CCN(CC)C(=O)Sc1nc2ccccc2s1,-4.8%
13,O=[N+]([O-])c1ccc(N2CCN(CCO)CC2)cc1NCCc1ccccc1,5.4%
14,CN(C)c1ccc(/C=C/c2nc3ccccc3c(=O)n2-c2cccc3ccccc23)cc1,105%
15,C/C(=N\N=C1\NC(=O)C(CC(=O)Nc2ccc(Cl)cc2Cl)S1)c1ccc([N+](=O)[O-])cc1 (stereo not drawn),-0.3%
16,O=C(CN1C(=O)/C(=C\c2ccccc2F)SC1=S)Nc1ccccc1C(=O)O,6.3%
17,O=C(O)CCCN1C(=O)C(=O)/C(=C(/O)c2ccccc2)C1c1ccc([N+](=O)[O-])cc1 (stereo not drawn),-18.2%
18,Cc1c(NC(=O)c2ccccc2Br)cccc1-c1nc2ccccc2o1,3.4%
19,Brc1ccc(/C=N/c2ncn[nH]2)cc1,-13.9%
20,Cc1cc(C)n(-c2cc(Nc3ccccc3)nc(-c3ccccc3)n2)n1,2.1%
21,CC1CN(CC(O)COc2ccc3ccccc3c2)CC(C)O1 (stereo not drawn),0.2%
22,COc1cc(NC(=O)Cn2nc(C)c([N+](=O)[O-])c2C)c(OC)cc1Cl,-8.5%

row,Structure (SMILES),displacement
1,CCOc1ccc(Cc2c(O)nc(N)[nH]c2=O)cc1,10.2%
2,Cc1ccc(NC(=O)c2ccc(-c3cc(Cl)ccc3Cl)o2)c([N+](=O)[O-])c1,2.1%
3,Cc1c(Cl)cccc1NC(=O)C(=O)NCC1CCCO1 (stereo not drawn),10.9%
4,CCc1ccccc1NC(=O)c1c(NC(=O)c2ccco2)sc2c1CCC2,12.1%
5,CCn1c(-c2ccc(OC)cc2)n[nH]c1=S,-1.8%
6,Cn1cnnc1SCC(=O)c1ccccc1,15.5%
7,CCc1ccccc1NC(=O)CN(c1cccc(C(F)(F)F)c1)S(C)(=O)=O,1.7%
8,COc1ccc(C(=O)Nc2ccc(N3CCCCC3)c(Cl)c2)cc1OC,-55.4%
9,Cc1ccc(-c2noc(-c3ccc(C)cc3)n2)cc1,9.1%
10,O=C(NCc1ccccc1)/C(NC(=O)c1ccccc1)=C1\c2ccccc2-c2ccc([N+](=O)[O-])cc21,1.7%
11,O=C(Nc1ccccc1)Nc1ccc(S(=O)(=O)N2CCCC2)cc1,1.5%
12,COc1ccc(C2Nc3ccccc3C(=O)N2Cc2ccco2)cc1COc1ccc([N+](=O)[O-])cc1 (stereo not drawn),13.9%
13,O=C(Nc1ccc2c(c1)oc1ccccc12)c1c(Cl)cccc1Cl,1.4%
14,CN(C)c1ccc(/C=N/S(=O)(=O)CCc2ccccc2)cc1,-10%
15,CCCC(C)NC(=O)c1ccc(Cl)c([N+](=O)[O-])c1 (stereo not drawn),-0.1%
16,COc1ccc(/C=N/n2cn[nH]c2=S)cc1OC,-5.1%
17,Cc1c(-c2ccccc2)nc2ccccc2c1C(=O)Nc1ccc(F)cc1F,4.1%
18,Cc1ccc(C2=NNC(c3ccc(F)cc3)S2)cc1 (stereo not drawn),-5.6%
19,CCOc1ccc(-c2cc(C(=O)Nc3ncn[nH]3)c3ccccc3n2)cc1,-1.4%
20,CC1C(c2ccc(N(C)C)cc2)NC(c2ccc(N(C)C)cc2)C(C)C1O (stereo not drawn),11.5%
